The campaign covered roughly 110,000 compounds. About 230 (0.21%) showed an effect of 50% or more. The list shows a part of the results.
Each compound was assayed against DPAP1 (Plasmodium falciparum, UniProt Q8IIJ9) (assay: primary screen, percent inhibition; read by cleavage of a fluorogenic dipeptide substrate; higher = more effect of the substance).
Design: species or system P. falciparum D10 trophozoite lysates; single well
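Further: 30 min substrate incubation versus DMSO and 10 µM JCP410 controls.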

DPAP1, sequence (Q8IIJ9 whole entry, looked up): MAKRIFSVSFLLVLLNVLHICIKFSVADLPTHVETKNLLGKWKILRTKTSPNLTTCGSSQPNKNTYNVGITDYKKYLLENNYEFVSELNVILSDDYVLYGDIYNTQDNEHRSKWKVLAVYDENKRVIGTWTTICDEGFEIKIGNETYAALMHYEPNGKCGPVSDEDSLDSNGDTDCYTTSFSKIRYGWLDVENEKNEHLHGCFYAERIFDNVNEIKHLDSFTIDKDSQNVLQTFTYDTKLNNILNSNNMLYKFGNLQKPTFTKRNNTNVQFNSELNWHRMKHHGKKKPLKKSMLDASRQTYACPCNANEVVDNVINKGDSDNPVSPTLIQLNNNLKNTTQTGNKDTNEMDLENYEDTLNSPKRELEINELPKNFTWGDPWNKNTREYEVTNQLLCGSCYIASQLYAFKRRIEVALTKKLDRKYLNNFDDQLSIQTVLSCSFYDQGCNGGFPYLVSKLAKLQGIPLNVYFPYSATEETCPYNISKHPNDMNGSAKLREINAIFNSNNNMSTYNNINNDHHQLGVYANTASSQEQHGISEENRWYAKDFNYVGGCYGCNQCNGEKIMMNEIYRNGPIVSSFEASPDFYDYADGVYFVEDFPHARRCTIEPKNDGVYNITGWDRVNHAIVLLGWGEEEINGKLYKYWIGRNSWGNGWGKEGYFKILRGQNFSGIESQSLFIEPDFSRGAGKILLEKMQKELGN

| Structure (SMILES) | % Inhibition @ 10 uM |
| --- | --- |
| O=C(CNC(=O)c1ccccc1F)c1ccccc1 | 2.26% |
| Cc1cc(O)c(C=O)c(C)c1Cl | 3.39% |
| COc1ccccc1CNC(=O)c1cc2oc3ccccc3c2n1C | 6.06% |
| CCOc1cc(/C=C2\C(=N)N3N=C(N4CCC(C)CC4)SC3=NC2=O)ccc1O | 1.72% |
| CCCOc1ccc(C(C)=O)cc1Cc1c(O)nc(SC)nc1O | 23.7% |
| CN(Cc1ccco1)C(=O)C1CCN(c2nnc(-n3cccc3)s2)CC1 | -1.98% |
| COC(=O)c1c[nH]n2c(NC3CCCCCC3)c(-c3ccc(OC)cc3)nc12 | 2.79% |
| Cc1c(C(=O)O)c(-c2ccccc2)nn1-c1ccccc1 | -3.65% |
| CCS(=O)(=O)N1CCCC(C(=O)NCc2cccnc2)C1 (centres unmarked) | -1.79% |
| C=CCOc1ccc(CNc2cccc(C(=O)O)c2)cc1OC | -0.763% |
| CCc1ccc(C2=NN(CCC(=O)NCc3ccccc3)C(=O)CC2)cc1 | 3.93% |
| O=C(O)C1CN=C(c2ccccc2)N1 (centres unmarked) | -0.256% |
| CCCNC1=N/C(=C\c2ccco2)C(=O)N1c1ccccc1 | 3.49% |
| COc1ccc(-c2nnc(C3CCN(S(=O)(=O)c4ccc5c(c4)CCCC5)CC3)o2)cc1 | 0.66% |
| O=C(Cn1nc(Cc2ccncc2)c2ccccc2c1=O)NCc1ccc2c(c1)OCO2 | 5.09% |
| COc1cccc(C(=O)Nc2cccc(NC(C)=O)c2)c1 | -5.82% |
| Nc1c2c(nc3ccc(Br)cc13)N(c1ccccc1)CC2 | -0.582% |
| COc1ccc(-c2ccc(S(=O)(=O)NCC3CCCO3)cc2)cc1 (centres unmarked) | -3.29% |
| COc1ccc(Cl)cc1S(=O)(=O)N1CCCC(C)C1 (centres unmarked) | 0.611% |
| CC(C)Oc1ccc(C2CC(=O)NNC2=O)cc1 (centres unmarked) | 2.86% |
| CCCNCc1c(C(=O)O)n(Cc2ccc(F)cc2)c2ccccc12 | 1.93% |
| NC(=O)C1CCN(C(=O)c2ccc3c(c2)OCO3)CC1 | -2.07% |

| Structure (SMILES) | % Inhibition @ 10 uM |
| --- | --- |
| COc1cc2c(cc1OC)C(c1ccccc1O)NCC2 (centres unmarked) | 1.66% |
| COc1cc(C2=NOC(C(=O)Nc3cccnc3)C2)cc(OC)c1OC (centres unmarked) | -0.431% |
| CCOc1ccc(NC(=O)Cc2ccc(OC)cc2)cc1 | -1.77% |
| Cc1cc(NC(=O)c2cc(-c3ccco3)on2)no1 | -5.09% |
| CCOc1ccc(CNc2nc3ccc(Cl)cc3n3cnnc23)cc1OC | -0.522% |
| CC(C)NC(=O)c1cc(-c2ccc3c(c2)OCO3)nc2ccccc12 | -11.8% |
| c1ccc(C2CCN(c3ncnc4c3nc3n4CCCCC3)C2)cc1 (centres unmarked) | -0.0255% |
| CCN(CC)S(=O)(=O)N1CCC(C(=O)NCc2ccc(C)cc2)CC1 | -0.519% |
| CCN(CC)CCCNc1oc(/C=C/c2cc(OC)c(OC)c(OC)c2)nc1C#N | -6.29% |
| CSC(=O)NC12CC3CC(C1)C(C)C(C3)C2 (centres unmarked) | 4.22% |
| CCN(CC)c1ccc(/C=C2/SC(N3CCCCC3)=NC2=O)cc1 | 13% |
| COc1ccc(-c2ccc3c(N)c(C(=O)Nc4cc(OC)ccc4OC)sc3n2)cc1 | -0.312% |
| COc1cc(Br)cc2c1Oc1nc(-c3ccccc3)nc(SCC(N)=O)c1C2 | -2.92% |
| CCc1ccc(C2CC(=O)NC3=C2C(=O)CC(c2cc(OC)ccc2OC)C3)cc1 (centres unmarked) | 3.67% |
| O=C(CN1C(=O)c2ccccc2C1=O)N(Cc1ccccc1)Cc1ccccc1 | -2.87% |
| CC1=CC=CC2=NC(C(F)(F)F)(C(F)(F)F)N=C(c3ccc(C)cc3)N12 | -3.53% |
| CC1=CC(C)C2C(=O)N(c3ccc[n+](C)c3)C(=O)C2C1 (centres unmarked) | -5% |
| c1ccc2c(c1)CCCC2Nc1ncnc2c1nc1n2CCCCC1 (centres unmarked) | -6.04% |
| CC(CCN1CCN(c2ccccc2F)CC1)c1ccccc1 (centres unmarked) | -3.57% |
| CCCCN1CCCC1C(O)(c1ccccc1)c1ccccc1 (centres unmarked) | -0.687% |
| COC(=O)C1=C(C)N(CC2CCCO2)C(=O)/C1=C\c1cc(C)n(-c2ccccc2Cl)c1C (centres unmarked) | -3.41% |
| Cc1cc(Cl)nc2cc(O)ccc12 | -2.88% |

| Structure (SMILES) | % Inhibition @ 10 uM |
| --- | --- |
| CCCOc1ccc(CC(=O)O)cc1OC | -2.87% |
| C=CCOc1ccc(CNc2ccc3[nH]c(O)nc3c2)cc1OC | 6.98% |
| CCCOc1ccc(C2C(C(=O)OC)=CN(Cc3ccc(Cl)cc3)C=C2C(=O)OC)cc1 | -6.93% |
| CN1CCN(CCCNC(=O)Cc2cn(C)c3ccccc23)CC1 | -3.87% |
| CCCNC(=O)CCc1cn(Cc2ccccc2C)c2ccccc12 | 1.95% |
| CC(C)Oc1ccc(-c2nc3s/c(=C\c4ccco4)c(=O)n3n2)cc1 | -6.86% |
| O=C(O)c1ccc(S(=O)(=O)N2CCCC2)cc1 | 0.0345% |
| CCN1CCN(C(=O)c2sc3nc(-c4ccc(F)cc4)cn3c2C)CC1 | 3.19% |
| CC1(C)CC(C2N3CC4(C)CN2CC(C)(C3)C4=O)CCO1 (centres unmarked) | -1.33% |
| CCOC(=O)c1oc2ccccc2c1CN1CCN(C(=O)c2ccccc2)CC1 | 5.65% |
| Cc1cccc(CCNC(=O)C2CCC(CNS(=O)(=O)c3cccc4cccnc34)CC2)c1 (centres unmarked) | -4.21% |
| Cc1cc(=O)n2ccc([N+](=O)[O-])c(O)c2n1 | -5.5% |
| COc1cc(-c2nn3c(-c4ccccc4)nnc3s2)cc(OC)c1OC | 17.2% |
| COc1ccc(Nc2nc(Cl)nc(NCc3ccco3)n2)cc1 | -6.62% |
| Cc1cc(O)c(C(=O)/C=C/c2ccccc2O)c(=O)o1 | 6.08% |
| Cc1ccc(-c2nnc3n(Cc4ccccc4)c(=O)c4ccccc4n23)s1 | -7.29% |
| Cc1ccc(-n2nc3c(N4CCC(C(=O)NCCN5CCN(C)CC5)CC4)nnc(C)c3c2C)cc1 | 4.23% |
| CCc1cc(C(N)=O)c(NC(=O)c2ccc(OC)cc2)s1 | -2.19% |
| COc1cc(F)c(C[C@H](NC(=O)c2ccc(-c3cc(C(=O)O)ccc3Cl)cc2)C(=O)NCC#N)c(F)c1 | -4.82% |
| COc1cc(C(=O)Nc2ccc(NC(C)=O)cc2)cc(OC)c1OC | -5.23% |
| O=C(O)CCCC(=O)Nc1nc(-c2ccc(F)cc2F)cs1 | 7.17% |

From paper PMC6919601, “Identification of Plasmodium dipeptidyl aminopeptidase allosteric inhibitors by high throughput screening” (PLoS ONE, 2019)
